# Assay results: publication PMC12040169 (PLOS Biology, 2025)
# This is one part of the list.
# System: T1, C. trachomatis L2/434/Bu expressing GFP (CTL2-GFP)
# T1 construct: L2/434/Bu GFP intracellular growth in HeLa cells
# Set-up: species or system HeLa; C. trachomatis total inclusion area by high-content imaging, normalised to DMSO
# Conditions: total inclusion area; 28.5 h, 10 µM; inhibitor
# Method in brief: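 Following bulk GFP and resorufin fluorescence reads, infected cells were fixed, Hoechst-stained and imaged on a high-content platform. Inclusion total area and number per well served as growth proxies; nuclei counts indicated host viability. MICs were derived as for the fluorescence assay.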
row,SMILES,% of control remaining
1,CCCc1n[nH]c(=S)n1CC(=O)NCc1ccc(OCCC(C)C)c(OC)c1 [CBK297743],98.919
2,CC(=O)Nc1cccc(CN(CCCCO)C2CC2)c1 [CBK304806],80.2603
3,N#Cc1ccccc1Cn1ccc2c(N3CCNCC3)cccc21 [CBK200015C],103.887
4,COc1ccc([C@@]23CC[C@@H](NC(=O)Nc4ccc5ccccc5c4)C[C@@H]2N(C)CC3)cc1OC [CBK034181T],93.6525
5,CSc1nc(N)c2nccnc2n1 [CBK025779],61.9488
6,COc1ccc(C)cc1NC(=S)NCc1cnn(C)c1 [CBK267025],86.7617
7,CCn1c(SCC(=O)Nc2ccc([N+](=O)[O-])cc2)nnc1C(NC(=O)c1ccccc1)C(C)C (stereo not drawn) [CBK107508],96.0877
8,CCCN[C@@H]1CCc2cc(CNC(=O)c3ccc(C#N)cc3)ccc2C1 [CBK010211C],70.5767
9,Cc1ccccc1N1C(=O)/C(=C/c2cn(Cc3ccccc3[N+](=O)[O-])c3ccccc23)SC1=S [CBK265101],116.241
10,Cc1cc2c(=O)n(CC(=O)NCc3ccco3)cnc2s1 [CBK071898],100.599
11,O=c1[nH]c2ncc(-c3ccoc3)nc2n1Cc1cccs1 [CBK064647],166.33
12,Cc1cc(NC(=O)c2cscn2)c2ccccc2n1 [CBK116275],98.5749
13,N#Cc1cccc(C(=O)N2CCC(NC(=O)c3ccc(F)cc3)CC2)c1 [CBK305717],96.956
14,Cc1cccc(-c2noc(CN(C(=O)c3ccc4c(c3)OCO4)C(C)C)n2)c1 [CBK268817],86.0988
15,Cc1nn(-c2ccc(F)cc2)c(C)c1CNC(=O)CCC1CCCO1 (stereo not drawn) [CBK281456],108.501
16,Cc1oc(NC(=O)CN(C)Cc2cccc(F)c2)c(C#N)c1C [CBK305609],58.7972
17,CCC(CC)C(=O)N1CCC2(CC1)Nc1cccnc1-n1cccc12 [CBK284508],93.4702
18,CN(c1ncc(-c2cc3ccccc3o2)cc1C(=O)Nc1ccc2c(c1)OCO2)S(C)(=O)=O [CBK106464],101.991
19,O=C(Nc1ccccn1)c1cc2ccccc2oc1=O [CBK287354],95.3968
20,CN(Cc1ccccc1)S(=O)(=O)c1ccc(OCC(=O)O)cc1 [CBK276426],99.823

row,SMILES,% of control remaining
1,Cc1ccc(Oc2ccc(S(=O)(=O)N3CCOCC3)cc2C(=O)O)cc1 [CBK286748],82.0211
2,CN(C)c1cccc(Nc2ccc(-c3cccc(C(=O)O)c3)cn2)c1 [CBK036879],146.145
3,CS(=O)(=O)N1CCN(c2ccccc2NC(=O)c2cccnc2)CC1 [CBK267604],95.0749
4,COc1ccc(CN2CCCN(S(=O)(=O)c3ccc(-c4ccccc4)cc3)CC2)cc1F [CBK063108],94.5993
5,COc1ccc(Sc2ncccc2C(F)(F)F)cc1OC [CBK093760],113.264
6,CSc1ccccc1CNC(=O)c1ccc(C)nc1N1CCOCC1 [CBK106224],91.3174
7,O=C1NC(=O)C(CCCCN2CCCC3(CCN(C(=O)c4ccoc4)C3)C2)N1 (stereo not drawn) [CBK132833],91.0525
8,O=C(O)c1ccccc1C(=O)Nc1ccc(Oc2cccc3ccccc23)cc1 [CBK265131],90.9882
9,COc1ccc(Br)cc1CNCc1ccc(C(=O)O)cc1 [CBK269449C],100.944
10,CN(C)CC(C)(C)CNC(=O)C1=CC(=O)CC(C)(C)O1 [CBK153291],81.4929
11,CC(C)(C)CC(=O)N1C[C@@H]2C[C@H](C1)c1ccc(NC(=O)Nc3ccccc3)c(=O)n1C2 [CBK289176],122.63
12,CCCCn1c(S)nc2c(-c3ccccc3)c[nH]c2c1=O [CBK288505],43.3768
13,COc1ccc(Br)cc1/C=N/NC(=O)C1CC(c2ccccc2)(c2ccccc2)C1 [CBK263218],89.1116
14,c1ccc(CN2CCN(c3nccnc3OCCN3CCOCC3)CC2)cc1 [CBK082885T],73.9342
15,CS(=O)(=O)c1ccc(Nc2ccc3c(c2)COC2(CCN(C(=O)Cc4ccc(F)cc4F)C2)O3)cc1 (stereo not drawn) [CBK131948],111.871
16,Cc1cc2ccccc2n1CCC(=O)NC1CCCOC1 (stereo not drawn) [CBK283152],96.9927
17,C=Cn1cccc1C(=O)N1C2CCC1c1cnc3cc(C)nn3c1C2 (stereo not drawn) [CBK284382],97.2813
18,Cn1cc(C(=O)NC2CCN(C(=O)c3ccc(C#N)cc3)CC2)cn1 [CBK305683],76.9073
19,Cc1cc(OCC(=O)N(C)C)c2c3c(c(=O)oc2c1)CCCC3 [CBK307189],88.0674
